Drawing on US20250276070A1, this text covers Kd, koff and kon for one molecule.

Test [1] has as its target gp120 subunit 93TH057 (HIV-1). Kind of test: BLI, His-tagged target on Ni-NTA. In general terms: BLI is a label-free optical method that tracks binding on a fibre tip over time.
Test [2] addresses His-tagged MPER peptide (HIV-1). Kind of test: BLI, His-tagged target on Ni-NTA.

Some results are limits rather than exact numbers.

B1: T-01 MB.v2 IgG1 WT (protein)
chain 1: DFVLTQSPHSLSVTPGESASISCKSSHSLIHGDRNNYLAWYVQKPGRSPQLLIYLASSRASGVPDRFSGSGSDKDFTLKISRVETEDVGTYYCMQGRESPWTFGQGTKVDIKRTVAAPSVFIFPPSDEQLKSGTASVVCLLNNFYPREAKVQWKVDNALQSGNSQESVTEQDSKDSTYSLSSTLTLSKADYEKHKVYACEVTHQGLSSPVTKSFNRGECGGGGSGGGGSGGGGSGGGGSGGGGSGGGGSGGGGSGGGGSGGGGSGGGGSGGGGSGGGGSGGGGSGGGGSQAQLVQSGPEVRKPGTSVKVSCKAPGNTLKTYDLHWVRSVPGQGLQWMGWISHEGDKKVIVERFKAKVTIDWDRSTNTAYLQLSGLTSGDTAVYYCAKGSKHRLRDYALYDDDGALNWAVDVDYLSNLEFWGQGTAVTVSSASTKGPSVFPLAPSSKSTSGGTAALGCLVKDYFPEPVTVSWNSGALTSGVHTFPAVLQSSGLYSLSSVVTVPSSSLGTQTYICNVNHKPSNTKVDKKVEPKSCDGGGGSGGGGSGGGGSGGGGSGGGGSG[about 200 residues not printed]
chain 2: QSALTQPRSVSASPGQSVTISCTGTHNLVSWCQHQPGRAPKLLIYDFNKRPSGVPDRFSGSGSGGTASLTITGLQDDDDAEYFCWAYEAFGGGTKLTVLGQPKAAPSVTLFPPSSEELQANKATLVCLISDFYPGAVTVAWKADSSPVKAGVETTTPSKQSNNKYAASSYLSLTPEQWKSHRSYSCQVTHEGSTVEKTVAPTECGGGGSGGGGSGGGGSGGGGSGGGGSGGGGSGGGGSGGGGSGGGGSGGGGSGGGGSGGGGSGGGGSGGGGSADLVQSGAVVKKPGDSVRISCEAQGYRFPDYIIHWIRRAPGQGPEWMGWMNPMGGQVNIPWKFQGRVSMTRDTSIETAFLDLRGLKSDDTAVYYCVRDRSNGSGKRFESSNWFLDLWGRGTAVTIQSASTKGPSVFPLAPSSKSTSGGTAALGCLVKDYFPEPVTVSWNSGALTSGVHTFPAVLQSSGLYSLSSVVTVPSSSLGTQTYICNVNHKPSNTKVDKKVEPKSCGGGGSGGGGSGGGGSGGGGSGGGGSGGSSQIRQNYSTDVEAAVNSLVNLYLQASYTYLSLGFYFDRDDVALEGVSHFFRELAEEKREGYERLLKMQNQRGGRALFQDIKKPAEDEW
chain 3: SELTQDPAVSVALKQTVTITCRGDSLRSHYASWYQKKPGQAPVLLFYGKNNRPSGIPDRFSGSASGNRASLTITGAQAEDEADYYCSSRDKSGSRLSVFGGGTKLTVLSQPKAAPSVTLFPPSSEELQANKATLVCLISDFYPGAVTVAWKADSSPVKAGVETTTPSKQSNNKYAASSYLSLTPEQWKSHRSYSCQVTHEGSTVEKTVAPTECGGGGSGGGGSGGGGSGGGGSGGGGSGGGGSGGGGSGGGGSGGGGSGGGGSGGGGSGGGGSGGGGSGGGGSEVRLVESGGGLVKPGGSLRLSCSASGFDFDNAWMTWVRQPPGKGLEWVGRITGPGEGWSVDYAESVKGRFTISRDNTKNTLYLEMNNVRTEDTGYYFCARTGKYYDFWSGYPPGEEYFQDWGQGTLVIVSSASTKGPSVFPLAPSSKSTSGGTAALGCLVKDYFPEPVTVSWNSGALTSGVHTFPAVLQSSGLYSLSSVVTVPSSSLGTQTYICNVNHKPSNTKVDKKVEPKSCGGGGSGGGGSGGGGSGGGGSGGGGSGGGGKTPDAMKAAMALEKKLNQALLDLHALGSARTDPHLCDFLETHFLDEEVKLIKKMGDHLTNLHRLGGPEAGLGEYLFERLTLRHDGGSGGSGGSGGSGGGSGGSGGSGGSG[human IgG1 Fc not printed]
In the case of B1, in test [1], the Kd (as a rule, the concentration at which binding is half-saturated) is less than 1 pM; the koff – broadly, a measure of how fast the partners let go of each other – was less than 1e-07 s⁻¹; the kon (usually a measure of how fast the partners come together) turned out to be 613000 M⁻¹ s⁻¹. In test [2], this molecule had a Kd of less than 1 pM, a koff of less than 1e-07 s⁻¹ and a kon of 183000 M⁻¹ s⁻¹.
